“And” between values parts separate entries of the source, which are not always exact repeats. Equal values may be shown once. The list shows a part of the results. Further columns of the screen follow, without active or inactive calls.
Experiments:
Assay in all cases: Primary Screen for Target Class Profiling of Small Molecule Inhibitors of Methyltransferases
[1] = biological target: Glycine N-methyltransferase (Homo sapiens) (UniProt Q14749); conditions: purified enzyme, MTase-Glo SAH luminescence; measured here: GNMT inhibition; at 40 µM; stronger effect = lower value
Method in brief: (§1)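 Each enzyme was reacted with SAM and its substrate, with compounds tested once at 40 uM; SAH formed was read by MTase-Glo luminescence.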

[2] = biological target: Guanidinoacetate N-methyltransferase (Homo sapiens) (UniProt Q14353); conditions: purified enzyme, MTase-Glo SAH luminescence; measured here: GAMT inhibition; at 40 µM; stronger effect = lower value
Method in brief: as §1

[3] = biological target: Histamine N-methyltransferase (Homo sapiens) (UniProt P50135); conditions: purified enzyme, MTase-Glo SAH luminescence; measured here: HNMT inhibition; at 40 µM; stronger effect = lower value
Method in brief: as §1

[4] = biological target: Nicotinamide N-methyltransferase (Homo sapiens) (UniProt P40261); conditions: purified enzyme, MTase-Glo SAH luminescence; measured here: NNMT inhibition; at 40 µM; stronger effect = lower value
Method in brief: as §1

[5] = biological target: Phenylethanolamine N-methyltransferase (Homo sapiens) (UniProt P11086); conditions: purified enzyme, MTase-Glo SAH luminescence; measured here: PNMT inhibition; at 40 µM; stronger effect = lower value
Method in brief: as §1
On the % scale 0 is the no-effect control and ±100 the full control effect.

| SMILES | activity change, negative = inhibition [1] | activity change, negative = inhibition [2] [%] | activity change, negative = inhibition [3] | activity change, negative = inhibition [4] [%] | activity change, negative = inhibition [5] [%] |
| --- | --- | --- | --- | --- | --- |
| Cn1c2ccc(F)cc2c2c(C(=O)N3CCCC3)cn(-c3ccccc3)c(=O)c21 | 6.9% | 3.89 | 7.43% | -22.8 | -2.58 |
| CCOC(=O)c1cc2n(n1)CC(C)(C(=O)NC1CCCCCC1)N(c1ccc(Cl)cc1C)C2=O (centres undefined) | 2.92% | 0.225 | -5.9% | 0.565 | 2.81 |
| Cc1nnc([C@@H]2CC(F)(F)CN2C(=O)c2conc2C)o1 | 1.59% | 0.93 | 3.75% | -0.808 | -0.15 |
| CCOc1ccc(CN2C(=O)c3cc4sccc4n3CC2(C)C(=O)NC2CCC(C)CC2)cc1 (centres undefined) | 0.573% | -4.79 | 1.03% | -3.14 | -5.46 |
| O=C(NCc1ccccc1)c1ccc2c(=O)nc3c(-c4cccc(F)c4)n[nH]n3c2c1 | -7.22% | 1.59 | -5.19% | -13.6 | -7.83 |
| Cn1ccnc1CN1CCN(c2nccc(-c3cccnc3)n2)CC1 | -5.42% | -2.83 | -1.3% | -2.13 | -0.952 |
| CC#C[C@@H](CC(=O)O)c1ccc(OCc2cccc(-c3ccc(C(F)(F)F)cc3)c2)cc1 | -20.7% | -1.27 | -2.47% | -52.6 | -0.168 |
| CCOC(=O)c1cc2n(n1)CC(C)(C(=O)NC1CCCCCC1)N(Cc1ccc(Cl)cc1)C2=O (centres undefined) | 4.77% | 0 | -3.04% | 1.31 | 5.12 |
| CN1CCc2cc(Cl)c(O)cc2[C@@H](c2ccccc2)C1 | -2.23% | 7.24 | -11.9% | -3.18 | 7.39 |
| CC(C)NC(=O)c1ccc2c(=O)n(C(C)C)c3nn(Cc4ccccc4Cl)c(=O)n3c2c1 | 3.05% | 1.17 | 5.26% | 2.72 | 2.78 |
| OC[C@H]1O[C@@H](OC(CCCCc2ccc(O)cc2)CCc2ccc(O)cc2)[C@H](O)[C@@H](O)[C@@H]1O (some centres undefined) | 0% | -2.91 | 3.3% | -16.2 | -11.5 |
| Nc1ccc(N2C(=O)c3ccccc3C2=O)c(Cl)c1 | -12.6% | 0.682 | -1.08% | -8.93 | 0.225 |
| Fc1cc(F)cc(Cc2nc3nccc(-c4cccnc4)n3n2)c1 | -4.28% | 0.207 | -0.57% | -5.93 | -1.03 |
| CCn1ccc(C(=O)N2CCCC(CO)CCNC(=O)CC2)n1 (centres undefined) | 0.374% | 1.3 | -2.46% | -0.942 | 0.394 |
| COc1cc(OC)cc(C(=O)N[C@@H]2COCC[C@@H]2Oc2cccc(F)c2)c1 | -1.6% | -1.23 | 0.46% | -7.69 | -17.1 |
| CC(C)NC(=O)c1ccc2c(=O)n(C(C)C)c3nn(CC(=O)NC4CCCC4)c(=O)n3c2c1 | 6.02% | 0.162 | 6.95% | 2.51 | 5.1 |
| C=Cc1ccc(Cn2nc3n(CC(C)C)c(=O)c4ccc(C(=O)NC5CCCCC5)cc4n3c2=O)cc1 | -4.5% | 0.662 | 1.13% | -0.022 | 3.89 |
| CCOC(=O)C1CCN(c2nc3c(S(=O)(=O)c4ccccc4)nnn3c3ccc(Cl)cc23)CC1 | 0.409% | 2.87 | 0.81% | -0.509 | -0.61 |
| COc1cc2c(cc1-c1c(C)noc1C)ncc1[nH]c(=O)n(C(C)c3ccccn3)c12 (centres undefined) | -48.4% and -82.9% |  | 6.67% and 2.14% | -24.2 | 3.92 |
| COc1ccc(CNC(=O)Cn2nc3n(Cc4ccccc4)c(=O)c4ccccc4n3c2=O)cc1 | 0.679% | 4.59 | -1.82% | 0.027 | 1.86 |
| CC1(C(=O)NC2CCCCC2)Cn2c(cc3sccc32)C(=O)N1Cc1cccc(Cl)c1 (centres undefined) | -2.64% | 1.88 | 1.67% | -4.33 | -3.71 |

| SMILES | activity change, negative = inhibition [1] | activity change, negative = inhibition [2] [%] | activity change, negative = inhibition [3] | activity change, negative = inhibition [4] [%] | activity change, negative = inhibition [5] [%] |
| --- | --- | --- | --- | --- | --- |
| O=S(=O)(NCc1ccc(Cl)cc1)c1ccc2[nH]c3c(c2c1)CCCC3 | -3.3% | 0 | 3.04% | -0.474 | -0.993 |
| CCOC(=O)c1cccc(NS(=O)(=O)c2ccc3[nH]c4c(c3c2)CCCC4)c1 | -10.1% | -1.69 | -1.97% | -8.68 | -1.97 |
| CC(C)(C)c1nc(C(=O)NCc2cccnc2)n2ccccc12 | -10.7% | -1.05 | -4.58% | -11.6 | -5.42 |
| CN1C(=O)c2cc(C(=O)NCCc3cccs3)nn2CC1(C)C(=O)NC1CCCCC1 (centres undefined) | -3.18% | -0.906 | -5.34% | 1.21 | -4.21 |
| COC(=O)c1cc(Br)cnc1N1CCC(NC2CCCCC2)C(O)C1 (centres undefined) | 1.57% | 1.32 | 10.3% | -7.55 | 2.83 |
| COc1ccc(N2C(=O)CSc3c(c4ccccc4n3C)C2C(=O)NCc2ccc(F)cc2)cc1OC (centres undefined) | -9.18% | 0 | -1.66% | 1.87 | 2.84 |
| CCC1(O)CCC12CCN(C(=O)c1ccco1)CC2 (centres undefined) | -1.59% | -2.34 | -1.97% | -4.7 | -6.84 |
| COc1cccc(-c2nnc3n(CCc4ccccc4)c(=O)c4ccccc4n23)c1OC | -2.45% | 0 | 1.25% | 1.57 | -2.16 |
| CC1(C)[C@H](C(=O)O)N2C(=O)C[C@H]2S1(=O)=O | 5.97% | 6.72 | 8.79% | -1.68 | 7.49 |
| Cc1ccc(Cn2nc3n(CC(C)C)c(=O)c4ccccc4n3c2=O)cc1 | 3.53% | 1.95 | 9.73% | -9.61 | 5.78 |
| COc1ccc(NC(=O)Cn2c(=O)oc3cc(S(=O)(=O)N4CC(C)CC(C)C4)ccc32)cc1 (centres undefined) | 16% | 4.29 | 13.9% | 8.9 | -4.82 |
| CC(=O)c1[nH]cc(CCC(=O)O)c1CC(=O)O | 3.41% | 6.38 | 4.56% | -5.72 | 2.27 |
| O=C(c1cnc(N2CCOCC2)nc1)N1CCn2nc(C(O)C3CC3)cc2C1 (centres undefined) | -4.87% | -7.09 | -1.46% | -9.44 | -7.59 |
| COc1cccc(CN2CCCC(O)(CNC3CCCCCCC3)C2=O)c1 (centres undefined) | -4.82% | -3.78 | -2.54% | -3.82 | 10 |
| Cc1ccc(NC2=N[C@H]3[C@@H](O)[C@H](O)C[C@H](C(=O)NCc4cccnc4)[C@H]3S2)cc1 | -1.09% | -0.327 | -0.533% | 0.278 | 4.78 |
| CC1CCC(N2C(=O)c3ccc(-c4ccco4)n3CC2(C)C(=O)NC2CCCCCCC2)CC1 (centres undefined) | -5.1% | 0.86 | 1.68% | -8.76 | -2.57 |
| CC(C)CCn1c(=O)c2ccccc2n2c(=O)n(CC(=O)Nc3ccc(F)cc3F)nc12 | 6.8% | 0.13 | 11.5% | 2.5 | 8.56 |
| O=C(Nc1nc2cccc(-c3ccc(CN4CCS(=O)(=O)CC4)cc3)n2n1)C1CC1 | -2.06% | -0.383 | 3.21% | -10.6 | -5.93 |
| Cc1ccc(NC(=O)N2CCN(c3nc(N)nc4sc(-c5cccnc5)nc34)CC2)cc1 | -6.22% | 14.9 | -0.475% | -5.2 | 0.706 |
| CC1(C(=O)NC2CCCCC2)Cn2c(ccc2-c2ccccc2)C(=O)N1Cc1cccs1 (centres undefined) | 8.15% | 0 | 7.12% | -2.69 | 4 |
| CCOc1ccc(CN2C(=O)c3cc4oc(C)cc4n3CC2(C)C(=O)NC2CCCCCCC2)cc1 (centres undefined) | 3.35% | -4.27 | 8.92% | 9.22 | 1.63 |

| SMILES | activity change, negative = inhibition [1] | activity change, negative = inhibition [2] [%] | activity change, negative = inhibition [3] | activity change, negative = inhibition [4] [%] | activity change, negative = inhibition [5] [%] |
| --- | --- | --- | --- | --- | --- |
| CCOC(=O)c1cc2n(n1)CC(C)(C(=O)NCCCOC)N(Cc1ccc3c(c1)OCO3)C2=O (centres undefined) | -0.366% | 0 | 5.22% | 1.31 | 0.714 |
| CCOc1ccc(CNC(=O)C(C)n2ccc3cc(S(=O)(=O)N4CCCC4)ccc32)cc1 (centres undefined) | 2.7% | 3.12 | -3.98% | -3.98 | -3.17 |
| CC1(C(=O)NC2CCCCC2)Cn2c(cc3sccc32)C(=O)N1Cc1ccc(F)cc1 (centres undefined) | 0.386% | 2.52 | -3% | -0.821 | -2.87 |
| CC(C)c1cc(C(=O)N2CC[C@H](CO)[C@H](O)C2)cs1 | -4.08% | -5.51 | -2.81% | -4.7 | -8.2 |
| C/C=C1\[C@H](O[C@@H]2O[C@H](CO)[C@@H](O)[C@H](O)[C@H]2O)OC=C(C(=O)OC)[C@H]1CC(=O)OC | 0.884% | 2.65 | 9.02% | -13.5 | 6.94 |
| CC(C)CCCC1CN(C(=O)CN2CCCC2=O)CCO1 (centres undefined) | -1.33% | -15.9 | -1.17% | -9.99 | -5.43 |
| Cc1cc(C(=O)NC2CC(C)(C)Cc3nc(N4CCOCC4)ncc32)nn1C (centres undefined) | -4.45% | -2.77 | -1.75% | -8.11 | -6.36 |
| Cn1c2c(c3ccccc31)C(C(=O)NCc1ccc(F)cc1)N(c1ccc(F)cc1)C(=O)CS2 (centres undefined) | -0.797% | 3.71 | 7.4% | 1.94 | 3.05 |
| Cc1noc([C@H]2CCN(S(C)(=O)=O)C[C@H]2NC(=O)C2CC2)n1 | -5.11% | -11.6 | -2.04% | -7.68 | -9.28 |
| O=C1CC2(CCN(CC3CCOCC3)C2)Nc2ccccc2N1 (centres undefined) | -1.46% | -0.293 | 1.51% | -1.12 | 2.72 |
| Cc1cccc(N2C(=O)c3ccccc3CC2(C)C(=O)NCc2ccccc2C)c1 (centres undefined) | 1.81% | 7.46 | 3.95% | 0.727 | 4.69 |
| Cc1cccc(CNC(=O)C2(C)Cn3cnc(C(=O)N(C)Cc4ccccc4)c3C(=O)N2C2CC2)c1 (centres undefined) | 5.96% | 0.67 | 11% | 5.54 | 9.34 |
| CCCC(C)N1CC2(CCN(C(=O)c3cnn4c3CCCC4)CC2)OC1=O (centres undefined) | -5.35% | -8.46 | -3.11% | -20.3 | -10.5 |
| CCC(C)NC(=O)c1ccc2c(=O)n(C(C)C)c3nn(CC(=O)Nc4cccc(F)c4)c(=O)n3c2c1 (centres undefined) | 0.768% | 0.279 | -3.9% | -3.97 | -2.16 |
| NCCCCN=C(N)N | -0.817% | 6.67 | -7.71% | -3.56 | 8.46 |
| CC(C(=O)NCCc1ccccn1)C1CCOCC1 (centres undefined) | -3.28% | -7.99 | -2.36% | -10.5 | -10.9 |
| CC(=O)Oc1ccccc1C(=O)O | 1.89% | 14.8 | 5.97% | 0.195 | 13.6 |
| Cc1cc2c(cc3n2CC(C)(C(=O)NC2CCCCCCC2)N(CCN2CCOCC2)C3=O)o1 (centres undefined) | 4.4% | 0.047 | 8.92% | 1.09 | 5.88 |
| O=C(O)[C@H]1NCCC[C@H]1C(=O)O | 10.5% | 12.2 | 12.9% | -4.82 | -0.529 |
| Cc1ccc(Cl)cc1NC(=O)CSc1nnc2n(CC(C)C)c(=O)c3ccccc3n12 | -3.69% | -0.769 | 2.36% | -7.96 | -3.43 |
